# Data as given in PubChem BioAssay AID686979 (National Center for Advancing Translational Sciences (NCATS), 2013).
# Hit rate of the full screen: of about 420,000 compounds, about 50,000 (12%) were called active. Inconclusive means that the source gave no clear call. Such entries were picked first, then a sample of the others. The call rests on the fitted dose curve; in most records, active means well fitted inhibition curve with a large enough effect; inconclusive means small, poorly fitted or top-dose-only effect; inactive means flat fitted curve, though single readings scatter. Potencies of inconclusive entries are left out as doubtful fits.
# Test: qHTS for Inhibitors of human tyrosyl-DNA phosphodiesterase 1 (TDP1): qHTS in cells in presence of CPT; further: nearly all actives have a fitted effect of over 55% in size
# Conditions: chicken DT40 Tdp1-/-;hTDP1 cells + 20 nM CPT, ATP luminescence, 48 h; activity change, negative = growth inhibition: at 46.2 µM (top of the series)
# Procedure, shortened: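 Chicken DT40 Tdp1-/- cells complemented with human TDP1, 400 cells/well, exposed to compounds plus 20 nM camptothecin for at least 48 h at 37 C; viability read as ATP content by CellTiter-Glo luminescence.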
# On the % scale 0 is the no-effect control and ±100 the full control effect; potency means the concentration at half of the fitted maximal effect; tags describe the fitted curve by direction and shape.
Compound,"activity change, negative = growth inhibition",Potency
COCCC(=O)N1CCC(Oc2ccc(C(=O)NCCc3ccccn3)cc2)CC1,inactive: -13.6%,–
CCCCNC(=O)C1(C)CCN1C(=O)c1ccc(OC)c(C(F)(F)F)c1 (stereo unspecified),–,"inconclusive [inhibitor, partial curve]"
COCCNC(=O)/C(C#N)=C/c1nc(N(C)C)n(-c2ccc(F)cc2)c1Cl,–,"inconclusive [inhibitor, single point]"
NC(=O)c1c(NC(=O)Cn2cc([N+](=O)[O-])cn2)sc2c1CCCC2,–,"inconclusive [inhibitor, partial curve]"
Cc1noc(C)c1NC(=O)Nc1cccc2c1O[C@H](CN(C)C(=O)Nc1ccc3c(c1)OCO3)[C@@H](C)CN([C@H](C)CO)C2=O,inactive: 6.49%,–
O=C(Nc1c2c(nn1-c1ccccc1)CS(=O)C2)c1ccc(Br)o1 (stereo unspecified),inactive: 3.54%,–
COc1cccc(-c2noc(CCC(=O)NC3CCCC3)n2)c1,inactive: -22.4%,–
Cc1ccc(OCCSc2nc3ccccc3n2CCC(=O)O)cc1C,–,"inconclusive [inhibitor, single point]"
COc1ccccc1NC(=O)c1ccc(-c2ccc(Br)cc2)o1,–,active: 7.31 µM
COc1ccc(N2CCN(C3CCCN(S(=O)(=O)c4ccccc4)C3)CC2)cc1 (stereo unspecified),–,"inconclusive [inhibitor, single point]"
COc1ccccc1N1CCN(C(c2ccccc2)c2nnnn2CCc2ccccc2)CC1 (stereo unspecified),–,active: 18.4 µM
C/C(=C/C(=O)O)C(=O)Nc1cccc(C(F)(F)F)c1,–,"inconclusive [inhibitor, partial curve, poor fit]"
O=c1c2ccccc2c(-c2ccc(Br)cc2)nn1Cc1ccccc1,–,"inconclusive [inhibitor, single point]"
COCCNC(=O)c1ccc2c(c1)nc(C)n2-c1cccc(Cl)c1,inactive: -2.76%,–
COc1cc(CNCc2ccccn2)ccc1OCC(N)=O,inactive: 5.45%,–
Cc1[nH]n(-c2ccccc2)c(=O)c1C(c1cccc([N+](=O)[O-])c1)c1c(C)[nH]n(-c2ccccc2)c1=O,–,"inconclusive [inhibitor, single point]"
CCOC(=O)C1=CN(CC2CCCO2)C=C(C(=O)OCC)C1c1ccccc1C(F)(F)F (stereo unspecified),–,"inconclusive [inhibitor, single point]"
CCOC(=O)C1(CC2CCCCO2)CCN(Cc2ccc(OC)cc2F)CC1 (stereo unspecified),–,"inconclusive [inhibitor, single point]"
CCCCNc1c(-c2ccc(OC)c(SC3CCCCC3)c2)nc2cnccn12,–,"inconclusive [inhibitor, single point]"
CC1(C)Oc2ccc3ccc(=O)oc3c2/C(=C/Nc2ccc(O)cc2)C1=O,inactive: -20.5%,–
C=CCC(=O)N(CC)CC1CCCN(CCc2cccc(F)c2)C1 (stereo unspecified),inactive: -0.0954%,–
O=C(NNC1=Nc2ccccc2SC1)c1ccc(Cl)cc1,–,active: 6.51 µM
COc1ccc(-c2cc(C(=O)Oc3ccc(Cl)cc3)c3ccccc3n2)cc1,–,"inconclusive [inhibitor, single point]"

Compound,"activity change, negative = growth inhibition",Potency
CN1CCN(C(=O)COCc2cc(-c3ccc4c(c3)OCO4)on2)CC1,inactive: 2.81%,–
COC(=O)COc1ccc(/C=N/NC(=O)CN(c2ccccc2OC)S(=O)(=O)c2ccccc2)cc1,–,"inconclusive [inhibitor, single point]"
Cn1c(NCc2cccnc2)nc2c1c(=O)n(Cc1ccccc1F)c(=O)n2C,–,"inconclusive [inhibitor, partial curve]"
Cn1c(CCNC(=O)c2cccs2)n[nH]c1=S,inactive: 0.78%,–
Cc1cc(N2CCC(C)CC2)nc2cccc(O)c12,–,"inconclusive [inhibitor, single point]"
O=C(NCc1ccccc1)c1cc(C2COCCN2C(=O)c2ccccc2)on1 (stereo unspecified),inactive: 0.222%,–
CCCCn1cnc2cc(NC(=O)c3cc(OC)c(OC)c(OC)c3)ccc21,–,"inconclusive [inhibitor, single point]"
C/C(=C\C(=S)Nc1ccccc1)Nc1cccc2ccccc12,–,"inconclusive [inhibitor, single point]"
COc1ccc(CC(=O)N/N=C/c2ccc(-c3ccc(F)cc3)o2)cc1OC,inactive: -22.2%,–
CN(C(=O)CSc1nc2ccccc2c(=O)n1-c1ccc(F)cc1F)C1CCS(=O)(=O)C1 (stereo unspecified),inactive: 3.12%,–
COc1ccccc1-c1nnc(SC/C(O)=C(\C#N)c2nc3ccccc3[nH]2)n1C1CCCCC1,–,"inconclusive [inhibitor, single point]"
COc1cc2c(cc1OC)-c1nnnn1C(C)(C)C2,inactive: -26.1%,–
COc1ccc(CC(=O)N2CC3(C)CC2CC(C)(C)C3)cc1 (stereo unspecified),–,"inconclusive [inhibitor, single point]"
CCN(Cc1ccccc1)C(=O)CCNS(=O)(=O)c1cc(Br)cnc1N,–,"inconclusive [inhibitor, single point]"
Cc1ccc(Nc2cc(-c3ccccc3)nc3ncnn23)cc1,–,"inconclusive [inhibitor, partial curve, poor fit]"
CCOc1ncc(S(=O)(=O)N2CCN(CC)CC2)cc1C(=O)O,inactive: -7.47%,–
Cc1ccc([C@H]2C[C@@H](n3cc(COC(=O)c4ccccc4)nn3)[C@H](O)CN2Cc2cccs2)cc1,–,"inconclusive [inhibitor, single point]"
O=C(c1cccc(-c2cccc3nccn23)c1)N1CCOCC1,inconclusive: -30.5% [inhibitor],–
COCCn1c(=O)c(CCc2ccccc2)nc2cnc(Oc3ccc(OC)cc3)nc21,inactive: -6.76%,–
CC(C)c1ccc(S(=O)(=O)Nc2cc3c(cc2NCc2ccccc2)n(C)c(=O)n3C)cc1,–,"inconclusive [inhibitor, full curve, poor fit]"
COc1ccc(CCNC(=O)c2cc3cccc4c3n2CC(C)S4)c(OC)c1OC (stereo unspecified),–,active: 20.6 µM
O=C(CSc1nc(-c2ccccc2)[nH]c1-c1ccc(F)cc1)NC1CCCC1,–,"inconclusive [inhibitor, single point]"
Cc1ccc(S(=O)(=O)N(CC(O)CN2CCOCC2)c2cccc([N+](=O)[O-])c2)cc1 (stereo unspecified),inactive: -8.71%,–
